Measured values published in PubChem BioAssay (NCATS).
The inconclusive results got no clear call from the source; some entries with a clear call stand among them for comparison. For some assays here: Potencies of inconclusive entries are left out as doubtful fits. Active and inactive are the calls of the source. Calls follow the shape of the dose curve; as a rule, active = well fitted curve in the direction sought with a large enough effect; inconclusive = small, poorly fitted or top-dose-only effect, or another doubt; inactive = no such curve, though single readings can be large; an effect the other way counts as inactive or inconclusive.

Tests used:
[1] = target: ATPase family AAA domain-containing protein 5 (Homo sapiens) (UniProt Q96QE3); assay: HTS assay for small molecules that inhibit ELG1-dependent DNA repair in human embryonic kidney (HEK293T) cells expressing luciferase-tagged ELG1: Hit Confirmation (AID 624248); also: nearly all actives have a fitted effect of over 55% in size; also: potency is read from the fitted curve at half-maximal effect
In short: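 Cells (2,000/well) received 5-Fluorouridine plus pin-transferred compound or DMSO and were incubated 16 hr at 37 °C, 5% CO2. Luciferase activity was read by ONE-Glo luminescence after 30 min at room temperature; inhibitors suppress the signal.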

[2] = qHTS screen for small molecules that inhibit ELG1-dependent DNA repair: Hit Confirmation with 5FU Viability (AID 624250); also: potency is read from the fitted curve at half-maximal effect;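 also: viability measured 16 h after compound addition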
In short: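 Luminescent ATP read-out (CellTiter-Glo) gives cell viability after 16 h exposure of ELG1-luc HEK293T cells to test compounds combined with 10 µM final 5-fluorouridine.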

[3] = qHTS screen for small molecules that inhibit ELG1-dependent DNA repair: Hit Confirmation with MMS Viability (AID 624251); also: nearly all actives have a fitted effect of over 60% in size
In short: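 Reporter HEK293T cells (ELG1-luc) receive compounds about 5 hours after plating, alongside 10 µM MMS, and are scored for viability by CellTiter-Glo following 16 hours of treatment.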
Tags tell the direction and shape of the fitted curve.

Sequence of UniProt Q96QE3 (Q96QE3 whole entry, looked up, the tested form may be a part): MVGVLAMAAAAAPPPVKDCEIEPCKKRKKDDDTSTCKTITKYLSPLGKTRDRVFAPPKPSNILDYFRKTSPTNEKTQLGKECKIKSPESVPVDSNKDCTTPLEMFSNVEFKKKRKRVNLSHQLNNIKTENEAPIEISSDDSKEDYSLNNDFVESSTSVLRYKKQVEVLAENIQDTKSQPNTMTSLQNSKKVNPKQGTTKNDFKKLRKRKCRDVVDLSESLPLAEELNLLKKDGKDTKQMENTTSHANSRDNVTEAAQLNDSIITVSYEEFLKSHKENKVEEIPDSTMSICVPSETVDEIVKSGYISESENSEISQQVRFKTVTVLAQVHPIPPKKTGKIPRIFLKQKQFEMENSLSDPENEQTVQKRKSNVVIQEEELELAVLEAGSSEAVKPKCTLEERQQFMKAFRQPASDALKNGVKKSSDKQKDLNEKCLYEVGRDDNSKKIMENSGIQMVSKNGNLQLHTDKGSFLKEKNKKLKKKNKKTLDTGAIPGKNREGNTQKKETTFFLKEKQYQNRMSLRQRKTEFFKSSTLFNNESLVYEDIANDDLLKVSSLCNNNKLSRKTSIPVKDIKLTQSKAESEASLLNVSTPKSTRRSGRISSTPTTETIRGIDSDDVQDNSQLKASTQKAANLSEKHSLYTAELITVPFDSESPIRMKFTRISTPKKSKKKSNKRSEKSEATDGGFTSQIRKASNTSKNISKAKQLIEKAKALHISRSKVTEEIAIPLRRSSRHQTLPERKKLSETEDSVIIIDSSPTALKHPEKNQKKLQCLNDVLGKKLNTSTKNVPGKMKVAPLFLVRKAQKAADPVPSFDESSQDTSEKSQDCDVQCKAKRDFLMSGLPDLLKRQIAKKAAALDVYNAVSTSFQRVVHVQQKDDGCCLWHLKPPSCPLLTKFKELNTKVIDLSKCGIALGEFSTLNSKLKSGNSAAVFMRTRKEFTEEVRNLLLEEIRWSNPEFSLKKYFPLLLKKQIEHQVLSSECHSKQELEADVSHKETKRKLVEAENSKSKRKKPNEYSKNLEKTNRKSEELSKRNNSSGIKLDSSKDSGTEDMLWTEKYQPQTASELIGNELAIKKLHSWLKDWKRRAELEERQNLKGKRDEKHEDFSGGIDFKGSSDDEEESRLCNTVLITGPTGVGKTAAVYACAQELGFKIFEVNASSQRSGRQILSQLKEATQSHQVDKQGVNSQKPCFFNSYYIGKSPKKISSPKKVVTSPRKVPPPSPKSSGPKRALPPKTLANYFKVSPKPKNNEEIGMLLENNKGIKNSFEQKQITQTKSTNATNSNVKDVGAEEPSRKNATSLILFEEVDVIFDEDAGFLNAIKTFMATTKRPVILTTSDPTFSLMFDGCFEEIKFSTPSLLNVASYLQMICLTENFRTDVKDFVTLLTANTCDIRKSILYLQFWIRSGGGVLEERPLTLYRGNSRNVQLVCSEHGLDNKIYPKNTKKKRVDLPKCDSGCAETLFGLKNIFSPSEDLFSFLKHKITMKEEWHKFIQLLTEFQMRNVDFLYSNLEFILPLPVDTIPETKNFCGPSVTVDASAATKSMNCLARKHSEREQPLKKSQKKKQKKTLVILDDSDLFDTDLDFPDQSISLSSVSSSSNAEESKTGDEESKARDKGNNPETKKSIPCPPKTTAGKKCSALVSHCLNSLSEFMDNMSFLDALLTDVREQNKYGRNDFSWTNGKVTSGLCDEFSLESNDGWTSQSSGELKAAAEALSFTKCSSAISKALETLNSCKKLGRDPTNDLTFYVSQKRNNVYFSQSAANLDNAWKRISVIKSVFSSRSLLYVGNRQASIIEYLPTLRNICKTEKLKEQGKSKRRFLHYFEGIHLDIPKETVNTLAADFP

SMILES	Potency [1]	Potency [2]	Potency [3]
CCOCCn1ccc2c(OCC(=O)Nc3cc(OC)ccc3OC)cccc2c1=O	active: 11.2 µM	inconclusive [rising, partial curve, poor fit]	–
Cc1c(Cc2ccccc2)c(=O)oc2cc(OCC(=O)N3CCC(C(N)=O)CC3)ccc12	inconclusive [inhibitor, partial curve]	inconclusive [rising, partial curve, poor fit]	–
CC(C)(C)OC(=O)C[C@@H]1C/C=C\C[C@@H](CC(=O)N[C@H](CO)Cc2ccccc2)C(=O)N2CCC[C@H]2COC1=O	inconclusive [inhibitor, partial curve, poor fit]	inactive	inactive
O=C(Nc1ccc(N2CCCC2)c(Cl)c1)c1ccc([N+](=O)[O-])cc1	inconclusive [inhibitor, full curve]	inconclusive [rising, full curve]	–
COc1cc(OC)c2c(-c3cccc(-c4ccc(C#N)cc4)c3)cc(=O)oc2c1	inconclusive [inhibitor, full curve]	inconclusive [rising, partial curve, poor fit]	–
NC(=O)c1ccsc1NC(=O)COC(=O)Cc1cccc2ccccc12	inconclusive [inhibitor, partial curve]	inactive	–
COc1cccc(-c2nc(CS(=O)(=O)CC(=O)NCCc3ccccc3)c(C)o2)c1	inconclusive [inhibitor, single point]	inconclusive [rising, partial curve, poor fit]	–
COc1cccc(NS(=O)(=O)c2ccc3c(c2)CCN3C(C)=O)c1	inconclusive [inhibitor, partial curve, poor fit]	inactive	–
Nc1ccc2nc(SCC(=O)N3CCN(c4ccccc4)CC3)sc2c1	inconclusive [inhibitor, partial curve]	inactive	–
COC(=O)C1C(=O)C=C(N2CCOCC2)CC1(C)C (stereo not drawn)	inactive	inactive	–
CNC(=S)N1N=C(c2ccc(OC)cc2)CC1c1ccc(Cl)cc1Cl (stereo not drawn)	inconclusive [inhibitor, partial curve]	inconclusive [rising, partial curve]	–
COc1cc(C(=O)NCc2ccccc2)cc(Br)c1OC	inconclusive [inhibitor, single point]	inconclusive [rising, partial curve, poor fit]	inactive
CCCCn1c(N)c(-c2nc3ccccc3o2)c2c([N+](=O)[O-])nn(C)c(=O)c21	inconclusive [inhibitor, full curve]	inconclusive [rising, full curve]	–
Cc1ccccc1NC(=O)CSc1nc2ccc(Nc3nc(N4CCOCC4)nc(N4CCOCC4)n3)cc2s1	active: 3.15 µM	inconclusive [rising, full curve]	–
O=C(Nc1nonc1NC(=O)c1cccs1)c1cccs1	inconclusive [inhibitor, partial curve]	inactive	–
COc1ccc(OCCN2CCN(C(=O)c3ccc(OC)cc3)CC2)cc1	inconclusive [inhibitor, partial curve, poor fit]	inactive	–
CC(C)c1nc2sc3c(=O)n(N)cnc3c2c2c1COC(C)(C)C2	inconclusive [inhibitor, full curve, poor fit]	inconclusive [rising, partial curve, poor fit]	–
O=C(Cn1cnc2ccccc21)Nc1ccc(SC(F)F)cc1	inactive	inactive	–
